# Assay results: the supplement of paper PMC7266297
# The other results are listed elsewhere or left out. Single values are uncertain, as repeats are few or missing.
# Legend:
# KB-3-1 = test: growth inhibition relative to DMSO control (SRB); cervical cancer cells: KB-3-1 is the parent and KB-V1 overexpresses MDR1; SRB is the sulforhodamine B stain; higher = more growth inhibition; details: 1 µM; 72 h
# KB-V1 = test: as above; details: 1 µM; 72 h
# 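Note: Read-out is SRB optical density at 490 nm, with the control being wells given 0.5% DMSO vehicle, and compound added one day after cells were plated.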
Compound,growth inhibition (KB-3-1) [%],growth inhibition (KB-V1) [%]
O=C(O[C@H]1C[C@H]2CC[C@@H](C1)[N+]21CCCC1)C(O)(c1ccccc1)c1ccccc1 [Trospium chloride],25.1,6.38
O=C(O)CNC(=O)c1c(O)c2ccccc2n(Cc2ccccc2)c1=O,< 0,21.4
COC(=O)C1=CCCN(C)C1 [Arecoline],27.8,3.73
CCc1c(C(=O)C(N)=O)c2c(OCC(=O)O)cccc2n1Cc1ccccc1,5.13,19.8
